# Measurements taken from PubChem BioAssay AID504832 (National Center for Advancing Translational Sciences (NCATS), 2011).
# Among all 310,000 compounds or so, about 18,000 (5.8%) were called active. Inconclusive results, whose numbers are uncertain, are shown with a selection of clear calls. Calls come from the whole dose curve; as a rule, active = well fitted inhibition curve with a large enough effect; inconclusive = small, poorly fitted or top-dose-only effect, or another doubt; inactive = no such curve, though single readings can be large or run the other way. No potency is given beside an inconclusive call; the fits are too rough.
# Experiment: Primary qHTS for delayed death inhibitors of the malarial parasite plastid, 48 hour incubation
# Conditions: P. falciparum luciferase growth in erythrocytes; series mostly up to 28.7 µM; activity change, negative = inhibition: at the top concentration
# How it was run: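 A one-generation exposure of luciferase-tagged malaria parasites in RPMI 1640/Albumax erythrocyte culture, 37 C and 5% CO2. Inhibition is inferred from decreased luminescence after adding detection reagent.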
# % is set by controls: 0 for no effect and ±100 for the full control effect; potency is the fitted concentration of half-maximal effect; tags give direction and shape of the fitted curve.
SMILES,Potency,"activity change, negative = inhibition"
O=C(c1cc(Cl)ccc1O)N1CCN(S(=O)(=O)c2cccs2)CC1,"inconclusive [inhibitor, single point]",
CCOC(=O)c1c(C)[nH]c(C(=O)NNC(=O)c2ccccc2)c1C,,inactive: 146%
COc1ccccc1N(C)S(=O)(=O)c1ccc(Cl)c(C(=O)NCC2(N(C)C)CCCCC2)c1,"inconclusive [inhibitor, partial curve]",
OCCC1CN(Cc2cccc(C(F)(F)F)c2)CCN1Cc1ccccc1 (stereo not given),"inconclusive [inhibitor, single point]",
COc1ccccc1N1CCN(S(=O)(=O)c2cc(-c3cc(C)no3)ccc2C(C)C)CC1,"inconclusive [inhibitor, partial curve]",
COc1ccc(-n2nc(C)c3sc(C)nc3c2=O)cc1,,inactive: 15%
Cc1cccc(CNc2ncnc3ccc(-c4cccc(Cl)c4)cc23)c1,active: 6.57 µM,
NC(=NCCc1c[nH]c2ccccc12)NC(=O)c1ccc(F)cc1,"inconclusive [inhibitor, single point]",
Cc1nonc1C1CCCN1C(=O)c1cc(COc2ccc(F)cc2Cl)on1 (stereo not given),,inactive: 2.02%
Cc1ccc(OCCC(=O)OCC(=O)N2c3ccccc3CC2C)cc1 (stereo not given),"inconclusive [inhibitor, partial curve, poor fit]",
Cc1cccnc1NC(=O)c1ccco1,"inconclusive [inhibitor, single point]",
CN(CCNC(=O)CCNC(=O)Cn1ccc2ccccc2c1=O)Cc1ccccc1,"inconclusive [inhibitor, partial curve, poor fit]",
COc1cc(Cl)c(C)cc1NC(=O)c1ccccc1NC(=O)CN1CCOCC1,"inconclusive [inhibitor, single point]",
Cc1cc(N2CCN(C(=O)Nc3ccc(F)cc3F)CC2)c2ccccc2n1,active: 10.4 µM,
COc1ccc(NC(=S)NC2CCCC2)c(OC)c1,,inactive: -13.7%
COc1ccc(/C(N)=N/OC(=O)c2ccc(OC)c([N+](=O)[O-])c2)cc1OC,"inconclusive [inhibitor, single point]",
CCC1Nc2ncnc(N3CCCCC3)c2N(Cc2ccc(Br)cc2)C1=O (stereo not given),"inconclusive [inhibitor, single point]",
CCOC(=O)N1CCC(NC(=O)CN(c2ccc(C(C)C)cc2)S(=O)(=O)c2c(C)nn(C)c2C)CC1,"inconclusive [inhibitor, partial curve, poor fit]",
Cc1cnc(=O)[nH]c1SCc1cccc([N+](=O)[O-])c1,,inactive: 1.97%
O=C(O)C1CCC(=O)N1C1CCCC1 (stereo not given),"inconclusive [inhibitor, single point]",
c1ccc(Cn2nnnc2C(c2cccnc2)N2CCN(c3ccccc3)CC2)cc1 (stereo not given),active: 13.1 µM,
O=S(=O)(CCc1nc2ccccc2o1)c1ccc(Cl)c(Cl)c1,,inactive: 21.8%
COc1cc(/C=C/C(=O)Nc2nc3ccc(S(=O)(=O)N(C)C)cc3s2)cc(OC)c1OC,,inactive: -17.3%
CC(C)CC(=O)NC(Nc1ccc([N+](=O)[O-])cc1)C(Cl)(Cl)Cl (stereo not given),"inconclusive [inhibitor, full curve, poor fit]",

SMILES,Potency,"activity change, negative = inhibition"
COc1ccc(NC(=S)N(CCCN2CCCCC2)Cc2cccs2)cc1,"inconclusive [inhibitor, partial curve]",
CC(c1ccccc1C(O)(c1ccccc1)c1ccccc1)N(C)C (stereo not given),"inconclusive [inhibitor, single point]",
CCCCc1ccc(NC(=S)N2CCN(c3ccccn3)CC2)cc1,,inactive: 40.9%
Cc1ccc2c(c1)[C@@H]1CN(C)CC[C@@H]1N2S(=O)(=O)c1ccc([N+](=O)[O-])cc1,"inconclusive [inhibitor, full curve]",
Clc1ccc2c(N/N=C/c3cccc(Br)c3)ccnc2c1,active: 0.586 µM,
CCn1c(C)cc(/C=C2\NC(=O)N(Cc3ccc(Cl)cc3)C2=O)c1C,"inconclusive [inhibitor, partial curve, poor fit]",
O=C(COc1nc2ccccc2nc1N1CCOCC1)Nc1ccc(S(=O)(=O)N2CCCC2)cc1,"inconclusive [inhibitor, partial curve]",
COc1ccc(C[C@H]2CN3C(=NC[C@@H]3Cc3ccc(O)cc3)N2C[C@H](C)NC(=O)CCC2CCCCC2)cc1,active: 2.08 µM,
CCOCCCn1c(=NC(=O)c2ccc(OC)c(OC)c2)c(C#N)cc2c(=O)n3cccc(C)c3nc21,active: 2.33 µM,
CCOC(=O)C1(Cc2cccc(OC)c2)CCN(Cc2ccc(OC)c(OC)c2)CC1,"inconclusive [inhibitor, partial curve]",
Cc1cccc(NC(=S)NNC(=O)c2csc3c2CCC(C)C3)c1 (stereo not given),,inactive: 59.1%
COc1ccc(-n2c(Cc3cccn3C)nnc2SCC(=O)N2CCC(C)CC2)cc1,"inconclusive [inhibitor, single point]",
COc1cccc(CNc2ccc([N+](=O)[O-])cc2C)c1,"inconclusive [inhibitor, partial curve, poor fit]",
CCOc1ccc(NC(=O)CN2C(=O)NC(C)(c3ccc(OC(F)F)cc3)C2=O)cc1 (stereo not given),active: 1.04 µM,
CCOC(=O)CSc1nnc(NC(=O)c2ccco2)s1,"inconclusive [inhibitor, single point]",
COc1cc([C@H]2c3cc4c(cc3[C@@H](O[C@H]3O[C@H]5CO[C@@H](C)O[C@H]5[C@@H](O)[C@@H]3O)[C@@H]3COC(=O)[C@H]23)OCO4)cc(OC)c1O,active: 13.5 µM,
CC(C)C(c1nnnn1C1CCCCC1)N1CCOCC1 (stereo not given),,inactive: -0.359%
CC(O)[C@H]1CNCCN1CCc1cccc(F)c1 (stereo not given in full),,inactive: 16.7%
COc1ccc(NC(=O)[C@@H]2CCCN2C(=O)c2cccs2)cc1S(=O)(=O)N1CCCCC1,"inconclusive [inhibitor, single point]",
COc1cc(NC(=O)CN2C(=O)COc3ccc(S(=O)(=O)N4CCCC4)cc32)cc(OC)c1,"inconclusive [inhibitor, single point]",
CCn1nc(C)c(CNC(=O)CCc2nnc(Cc3c[nH]c4ccccc34)o2)c1C,"inconclusive [inhibitor, single point]",
O=C(c1cn(-c2ccccc2)nc1-c1ccccc1)N1CCN(c2ccccn2)CC1,"inconclusive [inhibitor, single point]",
O=C(O)C1CCC(Cn2c(SCc3cc(=O)n4ccccc4n3)nc3ccsc3c2=O)CC1 (stereo not given),"inconclusive [inhibitor, single point]",
CCOc1ncccc1C(=O)OCC(=O)c1c[nH]c2ccccc12,active: 13.1 µM,

SMILES,Potency,"activity change, negative = inhibition"
COc1cc(/C=N\NC(=O)CNC(=O)C(c2ccccc2)c2ccccc2)ccc1O,"inconclusive [inhibitor, full curve]",
CCOc1ccc(/C=N/Nc2nc(C)cs2)c(O)c1,"inconclusive [inhibitor, single point]",
CC(=O)OC[C@H]1O[C@H](CCO/N=C(\C)CCN2CCCc3nc(C)c(C)cc32)C=C[C@@H]1OC(C)=O,"inconclusive [inhibitor, partial curve]",
O=C(Nc1nc(-c2ccccn2)cs1)c1cccc(S(=O)(=O)N2CCOCC2)c1,active: 1.04 µM,
O=C(N/N=C/c1cccnc1)c1ccccc1OCc1ccc(Br)cc1,active: 9.28 µM,
O=C(NN1C(=O)NC2(CCCCC2)C1=O)c1ccc(-c2ccc(Cl)cc2)o1,,inactive: -19%
COC(=O)N1CCCc2cc(C)ccc21,,inactive: 14.5%
CC1(C(=O)NC2CCCC2)CCC(=O)N1Cc1ccccc1 (stereo not given),,inactive: 11.3%
O=C(O)COc1cnc2ccccc2n1,,inactive: 22.3%
CCCS(=O)(=O)c1c(S(=O)(=O)CCC)c2ccc(C(N)=O)cn2c1C(=O)c1ccc(OC)cc1,"inconclusive [inhibitor, partial curve]",
CCCCN(C)CCNC(=O)CCNC(=O)Cn1ccc2ccccc2c1=O,,inactive: 4.83%
CC1CN(C(=O)COC(=O)c2ccc(NC(=O)CC#N)cc2)CC(C)O1 (stereo not given),"inconclusive [inhibitor, single point]",
CCN1CCN(c2ccc(S(=O)(=O)N3CCCCC3)cc2NC(=O)COc2ccc(F)cc2Cl)CC1,active: 7.38 µM,
COc1ccc(OC)c(NC=C2C(=O)OC3(CCCCC3)OC2=O)c1,"inconclusive [inhibitor, full curve, poor fit]",
N=c1c(S(=O)(=O)c2ccc(Cl)cc2)cc2c(=O)n3ccccc3nc2n1Cc1ccco1,"inconclusive [inhibitor, single point]",
Cc1ccc(/C=C/C(=O)Nc2ccc(N(C)C)cc2)o1,,inactive: 12.4%
CCCCc1ccc(NC(=O)CSc2nc(=O)n(CCN3CCOCC3)c3c2CCC3)cc1,,inactive: -58.6%
CCN1CCN(C(c2cccnc2)c2cc(Cl)c3cccnc3c2O)CC1 (stereo not given),active: 4.15 µM,
COc1ccccc1N1CCN(C(=O)C2CCN(C(=O)c3ccccc3C)CC2)CC1,"inconclusive [inhibitor, single point]",
O=C(/C=C/c1ccc(S(=O)(=O)N2CCOCC2)cc1)N1CCCCC1,"inconclusive [inhibitor, partial curve, poor fit]",
Cc1ccccc1OCC(=O)N(Cc1nnc(-c2ccc(Cl)cc2)o1)C(C)C,"inconclusive [inhibitor, single point]",
Clc1ccc(C[n+]2cc(-c3ccccc3)n3c2CCC3)cc1Cl,"inconclusive [inhibitor, partial curve, poor fit]",
